The other results are listed elsewhere or left out. These are noisy estimates, calculated here from bound and input reads.
target: T1, Pho4 (S. cerevisiae) (UniProt P07270); test: relative binding free energy (BET-seq); higher = weaker binding; conditions: reference: library average
T1 sequence: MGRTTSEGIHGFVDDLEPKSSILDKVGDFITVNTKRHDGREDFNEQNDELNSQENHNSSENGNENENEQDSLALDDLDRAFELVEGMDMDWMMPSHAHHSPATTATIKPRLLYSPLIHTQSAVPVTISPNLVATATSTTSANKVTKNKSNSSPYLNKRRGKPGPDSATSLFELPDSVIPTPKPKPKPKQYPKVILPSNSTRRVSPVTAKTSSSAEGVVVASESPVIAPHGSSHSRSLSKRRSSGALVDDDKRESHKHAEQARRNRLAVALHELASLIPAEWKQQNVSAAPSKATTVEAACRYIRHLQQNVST

Row | Sequence | relative binding free energy [kJ/mol]
1 | AATGGCACGTGAAAGT | 0.711
2 | TTTACCACGTGGGTTG | -0.209
3 | GAGTACACGTGGTGGT | 0.46
4 | TGGTACACGTGACTGG | 0.628
5 | TAGTGCACGTGGTATC | -0.628
6 | TTTTTCACGTGGTAAC | 0.795
7 | GGTGGCACGTGTTCAG | -0.209
8 | CTATTCACGTGAGGTG | 1.72
9 | ATGTTCACGTGTCTGA | 0.502
10 | AATTTCACGTGTAATT | 1.63
11 | AGATGCACGTGCTTTG | -0.0418
12 | TATATCACGTGGAATT | 0.544
13 | AGGTGCACGTGCTGTA | -0.879
14 | AATGGCACGTGAAGTA | 0.167
15 | GAAGTCACGTGGCTTG | 0.628
16 | ATGGGCACGTGTGCGG | -0.0418
17 | GGATACACGTGTTGTA | 0.46
18 | GTGTGCACGTGTCTAG | -0.0837
19 | TGGGACACGTGTTGAC | 0.544
20 | TTATGCACGTGATGAA | -0.0837
21 | TTTGGCACGTGTTGGC | -0.251
22 | CACAGCACGTGGTGGG | -0.962
23 | TATGTCACGTGAAGTG | 1.26

Row | Sequence | relative binding free energy [kJ/mol]
24 | TTGGGCACGTGTTTAT | -0.586
25 | TTGGCCACGTGAAGGA | 1
26 | GTTTTCACGTGGCGCT | 0.92
27 | TGGCGCACGTGGGACG | -0.586
28 | CTGGACACGTGGATGT | 0.126
29 | GTTCTCACGTGGTATG | 0.502
30 | TACTTCACGTGGCGGG | 0.544
31 | TGTGGCACGTGAATTT | 0.669
32 | ATGTTCACGTGGCATA | 0.209
33 | TTGTGCACGTGGATAC | 0
34 | TTTTACACGTGTTACT | 0.335
35 | CGATGCACGTGGCTGG | -0.586
36 | TTCTTCACGTGGTGAG | 0.837
37 | GAATACACGTGTGGGA | 0.92
38 | TAGGCCACGTGAGCGG | 0.418
39 | GTGTTCACGTGAGGGG | 2.05
40 | TTTTTCACGTGAGGAA | 1.76
41 | AAATGCACGTGGGTGA | -0.795
42 | AACGGCACGTGTGTTT | -0.0837
43 | GGATGCACGTGGTTGG | -0.251
44 | TATGTCACGTGCTAGG | 0.586
45 | TTGATCACGTGGAATA | 0.377
46 | AGTGCCACGTGGGTTT | -0.502

Row | Sequence | relative binding free energy [kJ/mol]
47 | ATAGACACGTGTGGTT | 0.502
48 | TTGAGCACGTGGGAGC | -0.837
49 | GCTTTCACGTGTGGGT | 0.669
50 | TGGGGCACGTGTAATA | -0.209
51 | GTTTGCACGTGTTGTT | 0.711
52 | TGGTTCACGTGACTTG | 0.92
53 | CTGGTCACGTGTTGTT | 0.418
54 | AGGGCCACGTGGGTCG | -0.502
55 | GAATGCACGTGGAGGG | 0.209
56 | TAGTCCACGTGGGGGG | -0.544
57 | TCGCGCACGTGGATGT | -0.502
58 | CTGGACACGTGCGGTT | 0.377
59 | TGGGACACGTGTGGGT | 0.502
60 | TGGGTCACGTGCGGGA | 0.335
61 | TAGGGCACGTGCGTGT | -0.837
62 | GTGTGCACGTGCTGCT | 0.167
63 | AATTCCACGTGTAGTT | 0.46
64 | AGGGTCACGTGCTATT | 0
65 | ATTCGCACGTGAGGAT | 0.711
66 | TTTAGCACGTGGGCGC | -1.05
67 | TGATTCACGTGTGTGT | 1.3
68 | AATCTCACGTGGTGGA | 1.05
69 | TTGACCACGTGTGTGA | -0.335

Row | Sequence | relative binding free energy [kJ/mol]
70 | GTTATCACGTGTAGTG | 0.795
71 | TGTGTCACGTGAGTGA | 0.795
72 | CGTGCCACGTGTTGTA | -0.167
73 | AGTTGCACGTGGGCTT | -1.05
74 | CGGGGCACGTGGCGAG | -0.837
75 | GGTGCCACGTGTTGCG | -0.418
76 | CTTTACACGTGTATGG | 0.837
77 | CGGGTCACGTGTGAGT | 0.92
78 | TGGGACACGTGGTCAG | -0.628
79 | AGATGCACGTGTAATG | 0.335
80 | GGAGTCACGTGCTGTG | 0.418
81 | GTTCACACGTGGAGGT | 0.795
82 | CGTCTCACGTGTTGGG | 0.753
83 | GGGCGCACGTGTTTCG | -0.418
84 | GGTCTCACGTGTGATG | 1.05
85 | ATACGCACGTGTTAGG | -0.669
86 | TCCTGCACGTGGAGTT | 0.209
87 | AGTGGCACGTGTAAGG | 0.0418
88 | ATGGACACGTGGCTAG | 0.126
89 | GCTTGCACGTGTTGCG | 0.293
90 | AGGAACACGTGGTGGC | -0.293
91 | CTATACACGTGTGGTG | -0.209
92 | GCGGACACGTGGTGGG | 0.209

Row | Sequence | relative binding free energy [kJ/mol]
93 | TTTACCACGTGGGTTT | -0.502
94 | TTTGTCACGTGCTTTC | 0.209
95 | TAATTCACGTGGAGGT | 1.17
96 | AGGTTCACGTGTGCCT | 0.92
97 | AGTTGCACGTGTTGGC | 0.377
98 | GAAGCCACGTGGTGTG | -0.251
99 | CGGTACACGTGCGTGT | 0.335
100 | TGATACACGTGGTTGC | 0.335
101 | TGTGGCACGTGCTGTA | -0.92
102 | GAGGTCACGTGAGTAA | 1.59
103 | ATTGTCACGTGTCTTT | 0.795
104 | GGTTACACGTGAGCTG | 1.46
105 | CTTTGCACGTGTGGTC | -0.335
106 | AGAGTCACGTGGAGGT | 0.46
107 | GATGGCACGTGAGTAG | 0.795
108 | ATAGCCACGTGGTGCG | -0.669
109 | TGGACCACGTGTTGGA | -0.377
110 | CATGTCACGTGATTAG | 1.55
111 | ATGTGCACGTGGAGGT | -0.251
112 | GCGGACACGTGTTGGT | 0.0837
113 | TCTGGCACGTGGTGTT | -0.544
114 | TGACGCACGTGTGATG | -0.167
115 | CGTTTCACGTGCGCGG | 0.502
